Publication PMC4336329 (PLoS ONE, 2015)
In all, about 310,000 compounds went through this assay and about 14,000 (4.5%) showed an effect of 50% or more. The effect is printed as a negative number. This is one part of the list.

Molecular target: human ether-à-go-go-related gene (hERG) potassium channel (human, UniProt Q12809)
Test: primary screen, population patch clamp on CHO cells stably expressing hERG
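Further: peak tail current of the secondary pulse compared with the same well before compound.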

Sequence of human ether-à-go-go-related gene (hERG) potassium channel (Q12809 whole entry, looked up): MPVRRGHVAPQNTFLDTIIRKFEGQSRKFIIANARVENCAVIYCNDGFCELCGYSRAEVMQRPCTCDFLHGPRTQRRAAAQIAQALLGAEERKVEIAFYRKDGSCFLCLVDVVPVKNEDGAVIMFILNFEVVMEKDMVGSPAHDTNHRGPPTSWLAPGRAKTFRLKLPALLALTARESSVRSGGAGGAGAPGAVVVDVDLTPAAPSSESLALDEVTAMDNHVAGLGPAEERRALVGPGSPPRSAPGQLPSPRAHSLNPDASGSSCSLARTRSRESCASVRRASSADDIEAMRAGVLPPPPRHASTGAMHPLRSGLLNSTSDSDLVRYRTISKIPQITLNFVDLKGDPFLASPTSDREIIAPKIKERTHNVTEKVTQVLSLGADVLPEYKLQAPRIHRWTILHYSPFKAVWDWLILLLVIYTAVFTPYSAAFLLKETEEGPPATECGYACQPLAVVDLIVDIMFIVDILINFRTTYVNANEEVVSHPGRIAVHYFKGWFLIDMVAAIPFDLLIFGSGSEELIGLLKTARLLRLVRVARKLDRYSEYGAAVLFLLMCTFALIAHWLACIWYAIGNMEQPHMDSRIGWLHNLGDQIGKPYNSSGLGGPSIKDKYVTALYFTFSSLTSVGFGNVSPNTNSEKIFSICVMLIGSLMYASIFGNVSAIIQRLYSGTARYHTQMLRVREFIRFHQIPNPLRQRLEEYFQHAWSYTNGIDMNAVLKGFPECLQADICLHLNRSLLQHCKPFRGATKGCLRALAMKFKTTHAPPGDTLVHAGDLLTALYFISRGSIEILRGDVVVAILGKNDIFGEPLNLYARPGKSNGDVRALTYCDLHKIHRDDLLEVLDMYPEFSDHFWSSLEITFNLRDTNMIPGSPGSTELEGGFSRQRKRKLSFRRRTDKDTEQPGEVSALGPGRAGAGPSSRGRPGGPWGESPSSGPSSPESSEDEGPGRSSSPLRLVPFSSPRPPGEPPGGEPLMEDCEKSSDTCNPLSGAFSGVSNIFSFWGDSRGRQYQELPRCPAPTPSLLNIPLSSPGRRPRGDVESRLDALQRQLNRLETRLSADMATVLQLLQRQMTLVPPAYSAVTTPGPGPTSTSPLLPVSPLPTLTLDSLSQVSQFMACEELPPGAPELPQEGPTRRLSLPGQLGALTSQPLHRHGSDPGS

SMILES	hERG current change (%, negative = inhibition) at 10uM
CSc1cccc(NC(=O)c2nnn(Cc3ccccc3)c2N)c1	15.2%
Cc1ccc(C(=O)NCC(=O)Nc2ccc(C)c(S(=O)(=O)Nc3ccc(Cl)cc3)c2)s1	13%
Cc1cccc(N2C(=O)c3ccc(C(=O)Nc4ccccn4)cc3C2=O)c1	9.66%
Cc1cc2c(Nc3ccccc3)ncnc2s1.Cl	4.58%
CC(=O)c1ccc(NC(=O)CSc2nnc3ccc(-c4ccccn4)nn23)cc1	-10.5%
CC1=C(C)CS(=O)N(S(=O)(=O)c2ccccc2)C1 (stereo not drawn)	-16.3%
CC(C)OC(=O)CN1CCN(S(=O)(=O)c2cc(Cl)ccc2Cl)CC1	-31.7%
O=C1C=C(c2cccc(O)c2)C[C@@H](c2ccc(F)cc2)C1	6.37%
O=C(O)/C=C\C(=O)Nc1ccc(OC(F)F)cc1	11.2%
Cc1[nH]c2ccc(OC(F)(F)F)cc2c1CCN1C(=O)c2ccc(C(=O)O)cc2C1=O	36.3%
CCN(CC)S(=O)(=O)c1ccc2oc(C(=O)NCCN3CCOCC3)c(C)c2c1	-5.3%
O=C(COC(=O)C1CCC1)Nc1ccc(OC(F)F)cc1	11.3%
O=C(COc1ccccc1)NCCS(=O)(=O)N1CCN(c2ccccc2)CC1	-3.18%
CCOc1ccc(Nc2ccc(N3C(=O)CCC3=O)cc2[N+](=O)[O-])cc1	2.09%
Cn1c(SCC(=O)Nc2ccc3c(c2)OCCO3)nnc1-c1ccco1	8.89%
Cn1c2ccccc2c2nnc(N/N=C/c3ccc(O)cc3)nc21	-0.978%
COc1ccc(-n2c(SC3CCOC3=O)nc3ccccc3c2=O)cc1OC (stereo not drawn)	-4.64%
Cc1cc(OCC(=O)NC2CC(C)(C)NC(C)(C)C2)c(C)cc1Br	-26.8%
O=C(N1CCOCC1)N1CCN(C(c2ccccc2)c2ccccc2)CC1	12.8%
Cc1ccc2cc3cc(C(=O)NCCCN4CC(C)CC(C)C4)oc3nc2c1 (stereo not drawn)	-62.9%
COc1ccccc1NC(=O)/C(=C\c1cccnc1)NC(=O)c1ccccc1	-65.5%
CCN(Cc1ccccc1)S(=O)(=O)c1ccc2c(c1)NC(=O)CS2	-44.5%
CCn1c(SCC(=O)N2CCCC2)nnc1-c1ccc(S(=O)(=O)N2CCCCCC2)cc1	-6.15%
C=CCC1c2cccc(C(=O)O)c2C(=O)N1c1cccc(C)c1 (stereo not drawn)	12.2%
